Measured values from PubChem BioAssay (Tox21).
Values joined by “and” are separate entries in the source; they are usually repeats but may differ in a detail not shown here. Identical values can stand only once. Inconclusive results, whose numbers are uncertain, are shown with a selection of clear calls. A call without a number means that no potency is given here. Potencies beside an inconclusive call are fits to weak or partial responses and may not hold up. Active and inactive are the calls of the source. Unless noted, calls follow the shape of the dose curve; as a rule, active = well fitted cell-killing curve with a large enough effect in the repeat runs; inconclusive = weak or mixed curves; inactive = flat fitted curve, though single readings scatter.

Assay: qHTS assay to identify small molecule antagonists of the estrogen receptor beta (ER-beta) signaling pathway - cell viability counter screen (AID 1259382); also: nearly all actives have a fitted effect of over 55% in size;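 as to activity change, negative = cytotoxicity: HEK293T cells carrying ER-beta-UAS-bla reporter stimulated with estradiol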
Conditions: ER-beta-UAS-bla HEK293T viability, CellTiter-Glo luminescence, 16 h; series mostly up to 92.4 µM
Outline: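 Following a 6 hr plating period, HEK293T cells carrying a UAS-driven beta-lactamase reporter under ER-beta control received compounds and 1nM E2 (final). After 16 hr at 37C and 2 hr substrate loading, CellTiter-Glo luminescence indicated viability.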
Potency is read from the fitted curve at half-maximal effect; tags tell the direction and shape of the fitted curve.

Row | Compound | Potency | activity change, negative = cytotoxicity
1 | CCC(CO)(CO)CO | inactive | –
2 | CCN(CC)CCCC(C)Nc1c2ccc(Cl)cc2nc2ccc(OC)cc12 (configuration not stated) | inconclusive: 6.68 µM [cytotoxic, partial curve] | –
3 | Cc1cc(-c2ccccc2)nnc1NCCN1CCOCC1 | inactive | –
4 | NC(=O)Nc1ccc(Cl)c(Cl)c1 | inactive | –
5 | CC[C@H](NC(=O)c1cc(F)ccc1NS(=O)(=O)c1cccc2cccnc12)c1ccccc1 | inconclusive: 25.8 µM [cytotoxic, full curve] | –
6 | CCC(COC(=O)CCS)(COC(=O)CCS)COC(=O)CCS | inactive | –
7 | CCOc1ccc(NC(C)=O)cc1 | inactive | –
8 | C=CCn1cc[n+](C)c1 | inactive | –
9 | COc1cc(NCc2ccc3nc(N)nc(N)c3c2C)cc(OC)c1OC | inconclusive: 0.168 µM [cytotoxic, full curve] | –
10 | CCN(CC)c1ccc2c(c1)Oc1cc(N(CC)CC)ccc1C21OC(=O)c2ccccc21 | inconclusive: 5.96 µM [cytotoxic, full curve] | –
11 | CC(C)=CCO | inactive | –
12 | CCCC(=O)OC | inactive | –
13 | O=C1CCCN1CCO | inconclusive: 17.2 µM [cytotoxic, full curve] | –
14 | CCCOCCO | inactive | –
15 | C[C@]12CC[C@@H]3c4ccc(O)cc4CC[C@H]3[C@@H]1CC[C@H]2O | inconclusive: 19.7 µM [cytotoxic, full curve, poor fit] and inconclusive: 7.7 µM [cytotoxic, full curve, poor fit] | –
16 | CCCCCCCCCCCCCCCCBr | – | inactive: -0.0957% [at 19 µM]
17 | CC(=O)CC/C=C(\C)CC/C=C(\C)CC/C=C(\C)CCC=C(C)C | inactive | –
18 | CC(=O)Oc1ccc([N+](=O)[O-])cc1CCl | inactive | –
19 | COCC(C)O (configuration not stated) | inconclusive: 78.8 µM [rising, partial curve, poor fit] | –
20 | CC(C)(C)NCC(O)COc1cccc2c1CCC(=O)N2 (configuration not stated) | inactive | –
21 | NS(=O)(=O)c1ccc(NC(=O)CCC(=O)O)cc1 | inactive | –
22 | O=CO | – | inactive: 7.25% [at 8.39 µM]
23 | NC(=O)C(c1ccccc1)(c1ccccc1)[C@@H]1CCN(CCc2ccc3c(c2)CCO3)C1 | inactive | –

Assay: qHTS assay to identify small molecule agonists or antagonists of the thyroid stimulating hormone receptor (TSHR) signaling pathway - wild type cell line counter screen (AID 1259384; calls by dose curve)
Conditions: HEK293 wild type, cAMP HTRF counter-screen; cAMP activity change: at 92.4 µM (top of the series), hits give high values unless noted
Outline: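 Counter screen in untransfected Hek293: compounds (15-point titration, triplicate) plus phosphodiesterase inhibitor Ro20-1724 added after 18 h plating; 30 min RT. Intracellular cAMP via competitive d2/cryptate immunoassay, 1 h incubation.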

Row | Compound | Potency | cAMP activity change
24 | CCN(CC)CCCC(C)Nc1c2ccc(Cl)cc2nc2ccc(OC)cc12 (configuration not stated) | inconclusive: 21.1 µM [partial curve] | –
25 | NC(=O)Nc1ccc(Cl)c(Cl)c1 | inactive | –
26 | CC[C@H](NC(=O)c1cc(F)ccc1NS(=O)(=O)c1cccc2cccnc12)c1ccccc1 | – | inconclusive: 7.57%
27 | CCN(CC)c1ccc2c(c1)Oc1cc(N(CC)CC)ccc1C21OC(=O)c2ccccc21 | inconclusive: 22.8 µM | –
